Data as given in the supplement of paper PMC8728848.
The other results are listed elsewhere or left out.

Assays:
Experiment in all cases: glycan array binding signal (z-score within array); higher = stronger binding
Conditions in all cases: glycan notation: IUPAC condensed, linker removed
[1] = biological target: Gal(b1-3)GlcNAc(b1-2)Man(a1-3)[GlcNAc(b1-4)][Gal(b1-3)GlcNAc(b1-2)Man(a1-6)]Man(b1-4)GlcNAc(b1-4)GlcNAc
Method in brief: (§1)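 Glycan array data came from 3228 arrays in the Consortium for Functional Glycomics database, and only arrays with an available protein sequence were kept. Glycan names were put into IUPAC-condensed notation, and columns mapping to the same glycan were averaged. The binding signal is a within-array Z-score, averaged across arrays of one protein sequence run at different concentrations or buffers and across linkers. A negative Z-score can be read as non-binding.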

[2] = biological target: Gal(b1-3)GlcNAc(b1-2)[Gal(b1-3)GlcNAc(b1-6)]Man(a1-6)[Gal(b1-3)GlcNAc(b1-2)Man(a1-3)]Man(b1-4)GlcNAc(b1-4)GlcNAc
Method in brief: as §1

[3] = biological target: Gal(b1-3)GlcNAc(b1-3)Gal(b1-3)GlcNAc
Method in brief: as §1

[4] = biological target: Gal(b1-3)GlcNAc(b1-3)Gal(b1-4)Glc
Method in brief: as §1

[5] = biological target: Gal(b1-3)GlcNAc(b1-3)Gal(b1-4)GlcNAc
Method in brief: as §1

[6] = biological target: Gal(b1-3)GlcNAc(b1-3)Gal(b1-4)GlcNAc(b1-2)Man(a1-3)[Gal(b1-3)GlcNAc(b1-3)Gal(b1-4)GlcNAc(b1-2)Man(a1-6)]Man(b1-4)GlcNAc(b1-4)GlcNAc
Method in brief: as §1

[7] = biological target: Gal(b1-3)GlcNAc(b1-3)Gal(b1-4)GlcNAc(b1-2)[Gal(b1-3)GlcNAc(b1-3)Gal(b1-4)GlcNAc(b1-6)]Man(a1-6)[Gal(b1-3)GlcNAc(b1-3)Gal(b1-4)GlcNAc(b1-2)Man(a1-3)]Man(b1-4)GlcNAc(b1-4)[Fuc(a1-6)]GlcNAc
Method in brief: as §1

[8] = biological target: Gal(b1-3)GlcNAc(b1-3)Gal(b1-4)GlcNAc(b1-3)Gal(b1-4)GlcNAc(b1-2)[Gal(b1-3)GlcNAc(b1-3)Gal(b1-4)GlcNAc(b1-3)Gal(b1-4)GlcNAc(b1-6)]Man(a1-6)[Gal(b1-3)GlcNAc(b1-3)Gal(b1-4)GlcNAc(b1-3)Gal(b1-4)GlcNAc(b1-2)Man(a1-3)]Man(b1-4)GlcNAc(b1-4)[Fuc(a1-6)]GlcNAc
Method in brief: as §1

[9] = biological target: Gal(b1-3)GlcNAc(b1-3)Gal(b1-4)GlcNAc(b1-6)[Gal(b1-3)GlcNAc(b1-3)]Gal(b1-4)Glc
Method in brief: as §1

[10] = biological target: Gal(b1-3)GlcNAc(b1-3)Gal(b1-4)[Fuc(a1-3)]GlcNAc
Method in brief: as §1

[11] = biological target: Gal(b1-3)GlcNAc(b1-3)Gal(b1-4)[Fuc(a1-3)]GlcNAc(b1-6)[Gal(b1-3)GlcNAc(b1-3)]Gal(b1-4)Glc
Method in brief: as §1

[12] = biological target: Gal(b1-3)GlcNAc(b1-3)GalNAc
Method in brief: as §1

[13] = biological target: Gal(b1-3)GlcNAc(b1-6)Gal(b1-4)GlcNAc
Method in brief: as §1

[14] = biological target: Gal(b1-3)GlcNAc(b1-6)GalNAc
Method in brief: as §1

[15] = biological target: Gal(b1-3)GlcNAc(b1-6)[Gal(b1-3)]GalNAc
Method in brief: as §1

Gal(b1-3)GlcNAc6S = biological target: Gal(b1-3)GlcNAc6S
Method in brief: as §1

[16] = biological target: Gal(b1-3)[Fuc(a1-4)]GlcNAc
Method in brief: as §1

[17] = biological target: Gal(b1-3)[Fuc(a1-4)]GlcNAc(b1-2)Man
Method in brief: as §1

[18] = biological target: Gal(b1-3)[Fuc(a1-4)]GlcNAc(b1-2)Man(a1-3)[Gal(b1-3)[Fuc(a1-4)]GlcNAc(b1-2)Man(a1-6)]Man(b1-4)GlcNAc(b1-4)[Fuc(a1-6)]GlcNAc
Method in brief: as §1

[19] = biological target: Gal(b1-3)[Fuc(a1-4)]GlcNAc(b1-3)Gal(b1-3)[Fuc(a1-4)]GlcNAc
Method in brief: as §1

[20] = biological target: Gal(b1-3)[Fuc(a1-4)]GlcNAc(b1-3)Gal(b1-4)[Fuc(a1-3)]GlcNAc
Method in brief: as §1

[21] = biological target: Gal(b1-3)[Fuc(a1-4)]GlcNAc(b1-6)GalNAc
Method in brief: as §1

[22] = biological target: Gal(b1-3)[GlcNAc(b1-6)]GalNAc
Method in brief: as §1

[23] = biological target: Gal(b1-3)[Neu5Ac(a2-6)]GalNAc
Method in brief: as §1

[24] = biological target: Gal(b1-3)[Neu5Ac(a2-6)]GlcNAc(b1-4)Gal(b1-4)Glc
Method in brief: as §1

[25] = biological target: Gal(b1-3)[Neu5Ac(b2-6)]GalNAc
Method in brief: as §1

Gal(b1-4)Gal = biological target: Gal(b1-4)Gal
Method in brief: as §1

[26] = biological target: Gal(b1-4)GalNAc(a1-3)[Fuc(a1-2)]Gal(b1-4)GlcNAc
Method in brief: as §1

[27] = biological target: Gal(b1-4)GalNAc(b1-3)[Fuc(a1-2)]Gal(b1-4)GlcNAc
Method in brief: as §1

Gal(b1-4)Glc = biological target: Gal(b1-4)Glc
Method in brief: as §1

B1: Pbx2 (Cryptococcus neoformans) (protein)
chain: AVSPLPSSTELVFYSQKRRRRRICSTATGSLSTPDPTRMTSDPYKRVGMRFSSVPRLLITFLSLLLLVSAAPPCVRFADYDSINQMFIDGGPGTKVLLCPNRLYRLSGPIIFTAADQEIATYGYPTGSERAVLRVEGRNTATAIQGDCRRCARVSVKNLVVDGNRKKLGRMRDFQLATGLVVLGGNEGQSIQNSWIKNPRGFTAIHIREGDKLQCSGARVEKNEIGPVGEEYDPEKDGDDPEMSPLGRPLADGVSIACRDSFIRDNTFRDNTDAAIVVYCSPGTLIHANHIFAQSLSAMAGILMVDSTPFNGDYTGTVVRSNIIDAVSRTIRVGIGIGPTVWSDDTETILTGGSVIGNGLKGRYMGYGIAAAGLKQWTIKDNWDEAKHEGRKSARCFDEPVNPDPIGLLYNRPTMEDCTVQSGFADHDFQYLVCIDGLYDKTNPPKHDPAPLAHDPSPTNAQEDNTVQQDGGDSKSKSIEQPREASDIEAEPSVEKMFSTGSEMMDDVLEHSHQRMHEVIDHLSRRIDILGAASAGKGSGDSKISEVLDPAMSSHLEKLQRKIEHLEFSLRSQIETAIQLRSAIQGWDQEMALVTDWEYDILLDVRHKLELSSYPHDQPLDPRLMRGQSYLNNEAVLVDDHSHPSLEGENLRAMSDRARLNANEEA
[1]
  glycan array binding signal (z-score): 0.625
[2]
  glycan array binding signal (z-score): -0.131
[3]
  glycan array binding signal (z-score): -0.343
[4]
  glycan array binding signal (z-score): -0.314
[5]
  glycan array binding signal (z-score): -0.583
[6]
  glycan array binding signal (z-score): -0.266
[7]
  glycan array binding signal (z-score): 0.251
[8]
  glycan array binding signal (z-score): 1.58
[9]
  glycan array binding signal (z-score): -0.258
[10]
  glycan array binding signal (z-score): 0.518
[11]
  glycan array binding signal (z-score): -0.346
[12]
  glycan array binding signal (z-score): 0.091
[13]
  glycan array binding signal (z-score): -0.224
[14]
  glycan array binding signal (z-score): 0.462
[15]
  glycan array binding signal (z-score): -0.178
Gal(b1-3)GlcNAc6S
  glycan array binding signal (z-score): 0.443
[16]
  glycan array binding signal (z-score): -0.254
[17]
  glycan array binding signal (z-score): 0.503
[18]
  glycan array binding signal (z-score): -0.088
[19]
  glycan array binding signal (z-score): -0.63
[20]
  glycan array binding signal (z-score): -0.432
[21]
  glycan array binding signal (z-score): 0.635
[22]
  glycan array binding signal (z-score): -0.302
[23]
  glycan array binding signal (z-score): -0.416
[24]
  glycan array binding signal (z-score): -0.058
[25]
  glycan array binding signal (z-score): -0.192
Gal(b1-4)Gal
  glycan array binding signal (z-score): 0.651
[26]
  glycan array binding signal (z-score): -0.609
[27]
  glycan array binding signal (z-score): -0.636
Gal(b1-4)Glc
  glycan array binding signal (z-score): -0.114
